Assay [1] concerns the target T1, high-affinity IL2R expressed on the surface of CTLL-2 cells.
T1 sequence (P01590 whole entry, species assumed, looked up): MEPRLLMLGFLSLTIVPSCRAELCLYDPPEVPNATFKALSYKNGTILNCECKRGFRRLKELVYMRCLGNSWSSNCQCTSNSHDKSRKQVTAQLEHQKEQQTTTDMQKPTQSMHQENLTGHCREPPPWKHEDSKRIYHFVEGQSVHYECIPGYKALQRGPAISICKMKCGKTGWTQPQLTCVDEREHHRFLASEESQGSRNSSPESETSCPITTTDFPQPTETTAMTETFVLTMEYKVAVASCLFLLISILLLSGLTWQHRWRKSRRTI
T1 sequence (P16297 whole entry, species assumed, looked up): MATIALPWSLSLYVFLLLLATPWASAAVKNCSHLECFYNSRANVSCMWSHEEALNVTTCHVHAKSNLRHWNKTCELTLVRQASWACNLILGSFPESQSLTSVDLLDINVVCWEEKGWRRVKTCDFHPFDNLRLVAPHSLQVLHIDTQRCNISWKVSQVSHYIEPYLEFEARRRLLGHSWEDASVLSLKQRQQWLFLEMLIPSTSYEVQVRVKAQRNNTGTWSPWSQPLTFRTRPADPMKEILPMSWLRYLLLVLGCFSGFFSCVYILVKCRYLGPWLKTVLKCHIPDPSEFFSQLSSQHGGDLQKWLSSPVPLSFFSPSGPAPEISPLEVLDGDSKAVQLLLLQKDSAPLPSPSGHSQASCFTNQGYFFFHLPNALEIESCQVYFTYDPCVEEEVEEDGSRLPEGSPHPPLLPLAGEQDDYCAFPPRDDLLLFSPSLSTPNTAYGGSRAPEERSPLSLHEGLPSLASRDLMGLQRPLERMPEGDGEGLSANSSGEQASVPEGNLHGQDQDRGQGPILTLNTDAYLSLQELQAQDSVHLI
T1 sequence (P34902 whole entry, species assumed, looked up): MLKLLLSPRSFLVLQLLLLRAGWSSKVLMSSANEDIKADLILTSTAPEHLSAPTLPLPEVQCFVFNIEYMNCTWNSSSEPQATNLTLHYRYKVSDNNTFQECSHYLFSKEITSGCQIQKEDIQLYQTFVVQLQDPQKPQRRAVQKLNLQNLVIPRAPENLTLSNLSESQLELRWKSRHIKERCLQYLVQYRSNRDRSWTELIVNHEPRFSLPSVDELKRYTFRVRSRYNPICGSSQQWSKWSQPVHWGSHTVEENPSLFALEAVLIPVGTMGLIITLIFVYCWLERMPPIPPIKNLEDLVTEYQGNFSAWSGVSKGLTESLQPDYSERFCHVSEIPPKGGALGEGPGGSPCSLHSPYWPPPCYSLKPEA
As to the kind of experiment: cell-based or functional assay.

For a further assay, the target named is T2, hIL2Rβ (hCD122) (human, UniProt P14784 27-239, limits assumed).
T2 construct: bought recombinant protein; also called hCD122 (Acro)
T2 sequence (looked up): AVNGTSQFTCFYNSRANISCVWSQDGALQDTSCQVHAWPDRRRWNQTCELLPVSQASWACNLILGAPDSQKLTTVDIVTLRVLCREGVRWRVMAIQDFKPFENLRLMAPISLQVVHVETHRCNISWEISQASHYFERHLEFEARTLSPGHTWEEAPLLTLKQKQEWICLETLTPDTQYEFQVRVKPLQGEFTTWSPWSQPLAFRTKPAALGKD
As to the kind of experiment: ELISA (method of section 2.1.1): sample captured on coated goat anti-human IgG, hCD122 titrated; the x axis is the CD122 concentration. (An ELISA detects its analyte on a solid surface through an enzyme-linked reagent.)

Assay [2] deals with T3, hIL2Rα (hCD25) (human, UniProt P01589 22-213, limits assumed).
T3 construct: bought recombinant protein; also called hCD25 (Acro); biotin-CD25 (Acro)
T3 sequence (looked up): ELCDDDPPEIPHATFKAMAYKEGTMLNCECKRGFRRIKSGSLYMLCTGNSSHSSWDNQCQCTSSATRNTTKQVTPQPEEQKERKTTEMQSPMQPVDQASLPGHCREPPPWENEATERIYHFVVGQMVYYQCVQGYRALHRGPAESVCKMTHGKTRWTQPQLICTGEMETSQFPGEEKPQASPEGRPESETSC
As to the kind of experiment: ELISA (method of section 2.1.1): sample captured on coated goat anti-human IgG, hCD25 titrated; the x axis is the CD25 concentration.

Assay [3] deals with T3, hIL2Rα (hCD25). As to the kind of experiment: BLI (ForteBio): K2G11 on a Protein A sensor, saturated with hIL2-DM, then IL2Rα in 1:2 dilutions.
For assay [4], the target named is T1, high-affinity IL2R expressed on the …. The assay can be described thus: cell-based or functional assay. This is another data set of the same source.

Residue numbers refer to the chain shown, from its start. Read-outs that look alike come from different tables or passages of the source.

B1: NARA1-Cy01 (other)
light: [… about 150 residues …]GGGGSGGGGSGGGGSGGGGSDIVLTQSPASLAVSLGQRATISCKASQSVDYDGDSYMNWYQQKPGQPPKLLIYAASNLESGIPARFSGSGSGTDFTLNIHPVEEEDAATYYCQQSNEDPYTFGGGTKLEIK
VH: QVQLQQSGAELVRPGTSVKVSCKASGYAFTNYLIEWVKQRPGQGLEWIGVINPGCGGTNYNEKFKGKATLTADKSSSTAYMQLSSLTSDDSAVYFCARWRGDGYYAYFDVWGAGTTVTVSS
notes: hIL-2 fused to the N-terminus of the NARA1 light chain, disulfide IL:111-H:54
With B1, in assay [1], the “Proliferative Activity in CTLL-2 Cells (EC50, nM)” value (“Proliferative Activity” below) was determined as 2.92 nM.

B2: NARA1-Cy09 (other)
light: [… about 150 residues …]GGGGSGGGGSGGGGSGGGGSDIVLTQSPASLAVSLGQRATISCKASQSVDYDGDSYMNWYQQKPGQPPKLLIYAASNLESGIPARFSGSGSGTDFTLNIHPVEEEDAATYYCQQSNEDPYTFGGGTKLEIK
VH: B1 VH with N31C, C55S
notes: hIL-2 fused to the N-terminus of the NARA1 light chain, disulfide IL:68-H:31
Turning to B2, in assay [1], the “Proliferative Activity” value was 3.36 nM.

B3: NARA1-Cy08 (other)
light: [… about 150 residues …]GGGGSGGGGSGGGGSGGGGSDIVLTQSPASLAVSLGQRATISCKASQSVDYDGDSYMNWYQQKPGQPPKLLIYAASNLESGIPARFSGSGSGTDFTLNIHPVEEEDAATYYCQQSNECPYTFGGGTKLEIK
VH: B1 VH with C55S
notes: hIL-2 fused to the N-terminus of the NARA1 light chain, disulfide IL:37-L:94
On to B3, for which the “Proliferative Activity” value in assay [1] came out at 21.3 nM.

B4: IC-Cy07 (other)
heavy: [… about 150 residues …]GGGGSGGGGSGGGGSGGGGSQVQLVQSGAEVKKPGATVKISCKVSGDTITAYYMHWVRQAPGQGLEWIGRIDPEDDSTKYAENFKGRVTITADTSTDTAYMELSSLRSEDTAVYYCTTVTCYYSRELRWFAYWGQGTLVTVSS
VL: DIVLTQSPATLSLSPGERATLSCQASQDIGNYLSWYQQKPGQAPRLLIYSATSLASGIPARFSGSRSGTDFTLTISSLEPEDFAVYYCLQHYSTPYTFGQGTKLEIK
notes: hIL-2/anti-IL-2 antibody fusion protein: hIL2-DM at the N-terminus of the heavy chain of hS4B6-H6K3(H), disulfide IL:64-H:97; also called H6K3(H)-Cy07; H6K3(H)-Cy-07
One may read the EC50 (read off the curve) as the concentration that produces a half-maximal response. A higher EC50 (read off the curve) goes with a less potent agent. For the molecule B4, in the assay with hIL2Rβ (hCD122), the binding result was “binds”. Besides, in the assay with hIL2Rα (hCD25) [2], the “EC50 (read off the curve)” value is approximately 0.05 µg/mL.

B5: K2G11 + hIL2-DM (hIL2-DM held by K2G11 on the sensor) (other)
heavy: QVQLVQSGAEVKKPGATVKISCKVSGDTITAYYMHWVRQAPGQGLEWIGRIDPDDDSTKYAENFKGRVTITADTSTDTAYMELSSLRSEDTAVYYCTTITFLYSRELRWFAYWGQGTLVTVSS[… human IgG1 constant region …]
VL: B4 VL with D28Y, G30S
chain: [… about 150 residues …]
modifications: Non-covalent complex made on the sensor: K2G11 on Protein A, then saturated with hIL2-DM.
notes: also called protein complex formed by hIL2-DM and the antibody K2G11; copies: 2 + 2 + 2
For the molecule B5, the binding result with hIL2Rα (hCD25) [3] is listed as “no binding”.

B6: TCB2-Cy01 (other)
light: [… about 150 residues …]GGGGSGGGGSGGGGSGGGGSDIVMTQSPSSLSASVGDRVTIRCITSTDIDDDMNWYQQKPGKAPKLLISEGNTLRPGVPSRFSGSGYGTDFTFTISSLQPEDIADYYCLQSDNLPYTFGGGTKLEIK
VH: QVQLVQSGAEVKKPGASVKVSCKASGYTFTTYWIQWVRQAPGQGLEWMGAIYPGDGDTRYIQNFKGRVTMTRDTSTSTVYMELSSLRSEDTAVYYCARSLCTRGFYAMDYWGQGTLVTVSS
notes: hIL-2 fused to the N-terminus of the TCB2 light chain, disulfide IL:68-H:97
For the molecule B6, the “Proliferative Activity” value in assay [4] was 1.34 nM.

B7: TCB2-Cy02 (other)
light: [… about 150 residues …]GGGGSGGGGSGGGGSGGGGSDIVMTQSPSSLSASVGDRVTIRCITSTDIDDDMNWYQQKPGKAPKLLISEGNTLRPGVPSRFSGSGYGTDFTFTISSLQPEDIADYYCLQSDNLPYTFGGGTKLEIK
VH: B6 VH with C101A, R103C
notes: hIL-2 fused to the N-terminus of the TCB2 light chain, disulfide IL:42-H:99
For the molecule B7, in assay [4], the “Proliferative Activity” value turned out to be 10.7 nM.

B8: TCB2-Cy07 (other)
light: [… about 150 residues …]GGGGSGGGGSGGGGSGGGGSDIVMTQSPSSLSASVGDRVTIRCITSTDIDDDMNWYQQKPGKAPKLLISEGNTLRPGVPSRFSGSGYGTDFTFTISSLQPEDIADYYCLQSCNLPYTFGGGTKLEIK
VH: B6 VH with C101A
notes: hIL-2 fused to the N-terminus of the TCB2 light chain, disulfide IL:34-L:92
Regarding B8, the “Proliferative Activity” value in assay [4] was 9.28 nM.

B9: TCB2-Cy11 (other)
light: [… about 150 residues …]GGGGSGGGGSGGGGSGGGGSDIVMTQSPSSLSASVGDRVTIRCITSTDIDDDMNWYQQKPGKAPKLLISEGNTLRPGVPSRFSGSGYGTDFTFTISSLQPEDIADYYCLQSDNCPYTFGGGTKLEIK
VH: B6 VH with C101A
notes: hIL-2 fused to the N-terminus of the TCB2 light chain, disulfide IL:37-L:94
With B9, in assay [4], the “Proliferative Activity” value worked out at 3.77 nM.
